Experimental data: PubChem BioAssay AID2147 (National Center for Advancing Translational Sciences (NCATS), 2009)
The whole screen tested about 230,000 compounds, of which about 3,600 (1.6%) were called active. Inconclusive means that the source gave no clear call. Such entries were picked first, then a sample of the others. The call rests on the fitted dose curve; in most records, active means well fitted inhibition curve with a large enough effect (not every such curve was filed as active); inconclusive means small, poorly fitted or top-dose-only effect, or another doubt; inactive means no such curve, though single readings can be large or run the other way. Potencies of inconclusive entries are doubtful fits and often do not repeat.

Biological target: Lysine-specific demethylase 4E (Homo sapiens) (UniProt B2RXH2)
Experiment: qHTS Assay for Inhibitors of Human Jumonji Domain Containing 2E (JMJD2E)
Conditions: JMJD2E catalytic domain, FDH-coupled NADH fluorescence (FDH is formaldehyde dehydrogenase); series mostly up to 57.1 µM; activity change, negative = inhibition: at the top concentration
Further: nearly all actives have a fitted effect of over 50% in size.
Potency means the concentration at half of the fitted maximal effect; tags describe the fitted curve by direction and shape.
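Wherever activity change, negative = inhibition is given: 0% = wells with enzyme and -100% = buffer wells without enzyme.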

Chain of UniProt B2RXH2 (B2RXH2 whole entry, looked up, the tested form may be a part): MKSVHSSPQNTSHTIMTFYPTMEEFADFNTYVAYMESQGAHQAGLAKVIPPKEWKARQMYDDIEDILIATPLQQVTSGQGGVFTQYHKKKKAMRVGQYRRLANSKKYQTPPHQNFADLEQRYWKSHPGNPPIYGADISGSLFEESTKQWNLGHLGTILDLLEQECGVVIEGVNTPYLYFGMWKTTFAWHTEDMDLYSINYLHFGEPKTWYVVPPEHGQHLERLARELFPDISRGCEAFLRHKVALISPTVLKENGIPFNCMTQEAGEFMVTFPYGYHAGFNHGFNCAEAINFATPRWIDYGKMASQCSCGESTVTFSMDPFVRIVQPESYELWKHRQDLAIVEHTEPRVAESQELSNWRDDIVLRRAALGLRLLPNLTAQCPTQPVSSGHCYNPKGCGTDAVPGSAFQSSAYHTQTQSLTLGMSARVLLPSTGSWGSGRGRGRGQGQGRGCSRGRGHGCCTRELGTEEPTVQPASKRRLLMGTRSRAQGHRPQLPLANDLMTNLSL

Row | SMILES | Potency | activity change, negative = inhibition
1 | COc1ccc(C=C(c2ccc(OC)cc2)c2ccc(OC)cc2)cc1 | inconclusive: 35.5 µM [inhibitor, partial curve] | –
2 | O=Cc1cn[nH]c1-c1cccc([N+](=O)[O-])c1 | – | inactive: -4.57%
3 | O=c1c2c3c(sc2nc(NCCO)n1Cc1ccco1)CCCCC3 | – | inactive: 6.82%
4 | CCCN1C(=O)C(O)(CC(=O)c2ccc3c(c2)OCCO3)c2ccccc21 (configuration not stated) | – | inactive: -5.26%
5 | COc1ccc2[nH]c(=O)c(CN(CCN3CCCC3)C(=O)Nc3ccccc3Cl)cc2c1 | inconclusive: 35.5 µM [inhibitor, partial curve] | –
6 | CC(C)(C)c1ccc(C(=O)Nc2ccc(NC(=O)c3ccco3)cc2)cc1 | inconclusive: 28.2 µM [inhibitor, partial curve] | –
7 | O=c1cc(-c2ccc([N+](=O)[O-])cc2)nc2cc(-c3ccc(Cl)cc3)[nH]n12 | – | inactive: 0.482%
8 | COc1ccc(NC(=O)Cc2ccc(C)cc2)c([N+](=O)[O-])c1 | – | inactive: 1.71%
9 | O=C(Nc1ccc2nc(-c3cccnc3)[nH]c2c1)C12CC3CC(CC(C3)C1)C2 | inconclusive: 28.2 µM [inhibitor, partial curve] | –
10 | COc1ccc(-c2nnc(SCC(=O)N3c4ccccc4Sc4ccccc43)o2)cc1 | – | inactive: -4.2%
11 | O=C(COC(=O)c1ccc([N+](=O)[O-])s1)Nc1ncc(C(F)(F)F)cc1Cl | active: 20 µM | –
12 | O=C(NCCc1ccc(Cl)cc1)C1CCN(S(=O)(=O)N2CCCC2)CC1 | – | inactive: -3.05%
13 | COC(=O)c1sccc1-c1ccc(/C=N/OC(=O)c2ccccc2)o1 | inconclusive: 31.6 µM [inhibitor, partial curve] | –
14 | COc1ccccc1Nc1nc(N)nc(-c2oc3ccccc3c2C)n1 | inconclusive: 25.1 µM [inhibitor, partial curve] | –
15 | COc1cccc(OCC(O)CN2CCN(CCN3C(=O)c4cccc5cccc(c45)C3=O)CC2)c1 (configuration not stated) | inconclusive: 39.8 µM [inhibitor, single point] | –
16 | Cc1cc(C)c2cc(CN(Cc3ccco3)C(=S)NCC3CCCO3)c(=O)[nH]c2c1 (configuration not stated) | inconclusive: 22.4 µM [inhibitor, partial curve] | –
17 | COc1ccccc1CNC(=O)c1ccc(N2CCOCC2)c([N+](=O)[O-])c1 | – | inactive: -16.5%
18 | Cc1cccc(Cn2c(SCC(=O)Nc3ccccc3)nc3c2c(=O)[nH]c(=O)n3C)c1 | – | inactive: -4.72%
19 | COC(=O)c1cc(C)nc(Sc2ccccc2N)n1 | inconclusive: 39.8 µM [inhibitor, single point] | –
20 | CC(C)[C@H](Nc1ccc(S(=O)(=O)N2CCOCC2)cc1[N+](=O)[O-])C(=O)OCC(N)=O | – | inactive: 4.94%
21 | Cc1c(NC(=O)COC(=O)c2cc3c4ccccc4n(C)c3s2)c(=O)n(-c2ccccc2)n1C | inconclusive: 22.4 µM [inhibitor, partial curve] | –
22 | O=[N+]([O-])c1cccc(CN(CCO)Cc2ccccc2)c1 | – | inactive: -0.114%
23 | Nc1nc(Nc2ccc(Cl)cc2)nc2ccccc12 | inconclusive: 35.5 µM [inhibitor, partial curve] | –
24 | Oc1oc(-c2cccc3ccccc23)nc1/C=N/c1nccs1 | – | inactive: -4.18%

Row | SMILES | Potency | activity change, negative = inhibition
25 | NC(=O)c1c(NC(=O)CSc2nnc(-c3ccco3)n2N)sc2c1CCCC2 | inconclusive: 39.8 µM [inhibitor, single point] | –
26 | CC(C)(C)[C@H]1C=C(C(=O)N2CCN(Cc3ccc4c(c3)OCO4)CC2)O[C@@H](OCc2ccc(CO)cc2)C1 | – | inactive: -1.11%
27 | Cn1c(NC(=O)c2cc(Br)ccc2Cl)cc(=O)n(C)c1=O | inconclusive: 39.8 µM [inhibitor, single point] | –
28 | COc1ccc2cc(C(C)=O)c(=O)oc2c1 | – | inactive: 2.73%
29 | Cc1cccc(C)c1NC(=S)/N=C/N(C)C | – | inactive: 2.31%
30 | Cc1ccc(N2CCN(CCCCN3C(=O)C4CCCN4C3=O)CC2)cc1 (configuration not stated) | inconclusive: 2 µM [inhibitor, partial curve] | –
31 | Cc1cccc(Oc2cc(NC(=O)Cn3cnc([N+](=O)[O-])n3)cc([N+](=O)[O-])c2)c1 | – | inactive: 1.2%
32 | Cc1nc2ccc3[nH]snc3c2n1 | inconclusive: 39.8 µM [inhibitor, single point] | –
33 | CC(C)NS(=O)(=O)c1ccc(NC(=S)NC(=O)c2cccc([N+](=O)[O-])c2)cc1 | – | inactive: 0.261%
34 | Cn1nccc1C(=O)Oc1ccc(/C=N/NC(=O)c2ccccc2O)cc1 | inconclusive: 39.8 µM [inhibitor, single point] | –
35 | Cc1ccc(NC(=O)c2cc(NC(=O)c3ccco3)ccc2N2CCOCC2)cc1 | inconclusive: 35.5 µM [inhibitor, single point] | –
36 | Cc1ccc(/C=N\NC(=O)c2cncc(Br)c2)o1 | inconclusive: 39.8 µM [inhibitor, single point] | –
37 | Cc1cc(/C=C2/NC(=O)NC2=O)c(C)n1-c1sc2c(c1C#N)CCCC2 | inconclusive: 39.8 µM [inhibitor, single point] | –
38 | O=c1cc(CN2CCc3ccccc32)c2ccc(O)cc2o1 | inconclusive: 35.5 µM [inhibitor, partial curve] | –
39 | O=C(NC1CCCCC1)C(c1ccncc1)N(C(=O)Cn1nnc(-c2cccs2)n1)C1CCCC1 (configuration not stated) | inconclusive: 35.5 µM [inhibitor, single point] | –
40 | Cc1ccc(Nc2nc(CSc3nnnn3-c3ccccc3)cs2)cc1 | – | inactive: -1.64%
41 | Cc1nn(C(C)C(=O)N2CCc3ccccc3C2)c(=O)c2cc3occc3n12 (configuration not stated) | inconclusive: 31.6 µM [inhibitor, partial curve] | –
42 | COc1ccc(N2C(=O)CS(=O)C(c3ccccc3)C2=O)cc1 (configuration not stated) | – | inactive: 5.26%
43 | Cc1nc(-c2ccc(-c3ccon3)s2)no1 | inconclusive: 28.2 µM [inhibitor, partial curve] | –
44 | COc1ccc(S(=O)(=O)Nc2nc3ccccc3nc2Nc2ccc3c(c2)OCO3)cc1 | – | inactive: -0.0826%
45 | COc1ccc2cc(C(=O)C3CCCN(C(=O)c4ccnn4C)C3)ccc2c1 (configuration not stated) | inconclusive: 31.6 µM [inhibitor, partial curve] | –
46 | c1ccc(OCCCN2CCCC2)cc1 | inconclusive: 39.8 µM [inhibitor, single point] | –
47 | FC(F)(F)c1cnc(N2CCN(C(=S)NCc3ccccc3)CC2)c(Cl)c1 | inconclusive: 35.5 µM [inhibitor, single point] | –
